# From the supplement of paper PMC4166925
# ± gives the standard deviation of the averaged measurements. In all, about 33,000 sequences were measured (“E-score (dimensionless, -0.5 to 0.5)”: median about -0.046, highest 2% from about 0.36 on). This is one part of the list.
# System: T1, SpTbr T-box DNA-binding domain (GST fusion)
# T1 sequence: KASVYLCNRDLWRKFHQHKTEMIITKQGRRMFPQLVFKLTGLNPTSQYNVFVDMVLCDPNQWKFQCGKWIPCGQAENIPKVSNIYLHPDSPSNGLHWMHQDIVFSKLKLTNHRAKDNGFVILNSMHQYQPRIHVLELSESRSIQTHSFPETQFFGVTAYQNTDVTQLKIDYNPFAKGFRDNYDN
# Assay: PBM E-score of 8-mer (E-score (dimensionless, -0.5 to 0.5)); Tbr is Tbrain of the sea star Patiria miniata (Pm) or the sea urchin Strongylocentrotus purpuratus (Sp); higher = stronger binding preference; most listed sequences are background and not binding sites
# Conditions: the construct has about 5 more residues each side
# Summary of the method: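 Using the Universal PBM Analysis Suite, every ungapped 8-mer received an enrichment E-score averaged over duplicate arrays. Probe intensities came from double-stranded Universal Agilent oligonucleotide arrays incubated with 200 nM GST-fused Tbr T-box DNA-binding domain in PBS (pH 7.5). That protein was expressed in BL21 E. coli at 20 °C and purified by glutathione affinity chromatography.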
row,Sequence,PBM E-score of 8-mer
1,ACACGACT,0.113 ± 0.018
2,CATCGCAA,-0.03 ± 0.019
3,TCACGGGA,0.0827 ± 0.011
4,AGATACAT,-0.206 ± 0.024
5,TGACAAAA,0.247 ± 0.048
6,TGCGCCCA,-0.0931 ± 0.057
7,GGAAAGTA,-0.153 ± 0.044
8,AACTGTGA,0.376 ± 0.011
9,CCCGTCAG,0.0659 ± 0.052
10,ACCCCTCA,0.0972 ± 0.11
11,CTACCCCA,-0.208 ± 0.06
12,CTGATCTA,-0.281 ± 0.038
13,AGCAGCGG,-0.144 ± 0.034
14,ACCGCTCT,-0.1 ± 0.033
15,GAGACCGC,0.00459 ± 0.034
16,CGCTTGTC,0.115 ± 0.043
17,GTGCTGTA,-0.117 ± 0.039
18,CATGAATC,0.0324 ± 0.072
19,AATCGTAA,0.0216 ± 0.031
20,CCAGCATC,-0.0542 ± 0.036
21,GATAAAAC,-0.0623 ± 0.043
22,TACCCGGA,-0.128 ± 0.15
23,CCGAGTCA,-0.101 ± 0.027
24,CCAATGGC,0.0452 ± 0.029
25,AGTCAGCC,-0.105 ± 0.056

row,Sequence,PBM E-score of 8-mer
1,AGGAGTGG,0.0757 ± 0.084
2,CACTAGGC,0.0671 ± 0.05
3,CACCAAAA,0.0206 ± 0.046
4,ACTACGGA,-0.16818 ± 0.00016
5,AACACTGC,0.303 ± 0.029
6,ATTCAAGC,-0.0934 ± 0.054
7,TCTGGTCA,-0.0843 ± 0.0043
8,CAATCATA,-0.128 ± 0.0074
9,TAAGGGCA,-0.102 ± 0.011
10,ACCAGGGC,-0.127 ± 0.06
11,ATCGGTAG,-0.174 ± 0.018
12,ATAAAGAA,-0.16 ± 0.03
13,AATACCAT,-0.0517 ± 0.012
14,GGAAGACA,0.0343 ± 0.043
15,TAGTCATA,-0.0729 ± 0.045
16,AAAAGGTA,-0.207 ± 0.011
17,ACTCCGAA,0.0524 ± 0.019
18,ACTATTAG,-0.152 ± 0.02
19,CATGTAAA,-0.0267 ± 0.0095
20,TCCCCCCA,-0.169 ± 0.019
21,CAAATGAA,-0.373 ± 0.021
22,AATCCTAG,-0.3099 ± 0.0022
23,GCCTTGAA,-0.074 ± 0.026
24,GCGGTTTA,0.0197 ± 0.047
25,ATGCGATA,0.0476 ± 0.028

row,Sequence,PBM E-score of 8-mer
1,ATGCGAGG,0.156 ± 0.03
2,CCCGCAGA,-0.204 ± 0.023
3,AAAACCCC,-0.202 ± 0.063
4,TCTACACA,0.117 ± 0.018
5,ATAGTTTG,-0.0682 ± 0.0097
6,AAGTTCCA,-0.133 ± 0.039
7,CAAGGGCC,-0.228 ± 0.036
8,AGCCACGC,0.132 ± 0.097
9,AAATTGCC,-0.133 ± 0.049
10,GAGGCTCC,-0.0609 ± 0.00097
11,TAAAGTTA,-0.146 ± 0.039
12,CCGCGACC,0.0624 ± 0.069
13,ATGGCTCC,-0.179 ± 0.012
14,CCCGGTCG,-0.0918 ± 0.028
15,AGCTAGAA,-0.0692 ± 0.023
16,AGCTGAGA,0.188 ± 0.031
17,CAGCAACG,0.0905 ± 0.024
18,GGACGACC,-0.348 ± 0.063
19,AAACGTTC,-0.0703 ± 0.0091
20,CGATTGCC,-0.0474 ± 0.017
21,CGCCGCAA,-0.0243 ± 0.024
22,AGTGCACG,-0.0198 ± 0.047
23,AGGTTTTA,-0.123 ± 0.026
24,CAATATGC,0.115 ± 0.013
25,ATCGCGTC,0.194 ± 0.021

row,Sequence,PBM E-score of 8-mer
1,ACTTGACT,0.0832 ± 0.1
2,CGCTCCTA,-0.00077 ± 0.011
3,AGCAAAAG,-0.191 ± 0.046
4,CCTAGAAA,-0.133 ± 0.0055
5,CTCGATAC,-0.0938 ± 0.055
6,AAGTGTAT,0.0229 ± 0.032
7,CCTATCAA,-0.102 ± 0.079
8,CAGCGGCG,0.0538 ± 0.12
9,TACTTAAA,-0.211 ± 0.062
10,CGCAGGAA,-0.0834 ± 0.04
11,AACGCTGA,0.0629 ± 0.00085
12,TGTAAAAA,-0.00039 ± 0.062
13,CAGGATGA,-0.252 ± 0.01
14,AACTAGCT,0.0492 ± 0.011
15,ATGCGTTC,-0.223 ± 0.02
16,ATCGGAGA,-0.127 ± 0.025
17,GAACGGCC,-0.0349 ± 0.059
18,AGTGCTAG,0.265 ± 0.049
19,GTGAACAA,0.255 ± 0.026
20,AATCTGTC,0.205 ± 0.027
21,ACGATACA,0.059 ± 0.027
22,ACTACCCC,-0.293 ± 0.066
23,AAACAGGG,-0.109 ± 0.011
24,ACCCCGAA,0.0131 ± 0.062
25,AAGTCCTA,-0.213 ± 0.025

row,Sequence,PBM E-score of 8-mer
1,ACGCTTGC,0.222 ± 0.011
2,AAAGACGC,0.0124 ± 0.035
3,TATCTCCA,-0.2344 ± 0.0019
4,CTATACAC,0.0341 ± 0.019
5,CTACTTGC,0.117 ± 0.025
6,AGAGGACG,-0.0797 ± 0.036
7,CCTGCCAA,0.128 ± 0.013
8,AGAAGGCG,0.303 ± 0.019
9,CTGGATCC,-0.0828 ± 0.0051
10,GGGTGGGA,0.271 ± 0.029
11,AATACGGT,-0.0647 ± 0.0054
12,GAACTCTC,-0.086 ± 0.033
13,GATCCTTA,-0.249 ± 0.0052
14,ACACGCAT,0.219 ± 0.0094
15,CACCAAAC,0.292 ± 0.036
16,ATTACTTG,0.0509 ± 0.038
17,ATGCGCTG,-0.00652 ± 0.078
18,CCCGTGGA,-0.0448 ± 0.005
19,CCCCCCAA,-0.135 ± 0.0046
20,GAGGAACA,0.0561 ± 0.021
21,CCGCCGTA,-0.262 ± 0.041
22,CTGTGACC,0.142 ± 0.026
23,GCGCCTAC,0.157 ± 0.01
24,AACCAGGA,-0.205 ± 0.014
25,TAGCAAAA,0.00702 ± 0.059

row,Sequence,PBM E-score of 8-mer
1,GTGACCAC,0.277 ± 0.039
2,CCTAGACC,-0.178 ± 0.029
3,CTACCATA,-0.0906 ± 0.045
4,AAAAGCTC,-0.0622 ± 0.065
5,CGTGTAAA,0.296 ± 0.027
6,CCTTGGTC,-0.155 ± 0.13
7,CTATAGAG,-0.282 ± 0.072
8,CGCCACGC,0.113 ± 0.022
9,TCCCTGAA,-0.204 ± 0.075
10,CTAGTCTA,-0.179 ± 0.058
11,AACTCTAT,-0.0786 ± 0.034
12,AAATTCGT,-0.0546 ± 0.095
13,CCCGGTAA,-0.228 ± 0.0044
14,ACTACTAA,-0.1604 ± 0.00025
15,AATCTTTA,-0.0541 ± 0.083
16,ACCAGTTG,-0.00842 ± 0.05
17,ATGTAACC,-0.22 ± 0.043
18,CAGACAAC,-0.0376 ± 0.013
19,ACACGGAG,0.126 ± 0.005
20,CTCTTTCC,-0.0647 ± 0.075
21,CCTACTGA,-0.116 ± 0.007
22,ACTCGGTG,0.133 ± 0.025
23,ATAGCCTC,-0.234 ± 0.0044
24,AAACTTGG,-0.128 ± 0.057
25,TGTCAACA,0.4051 ± 0.0019

row,Sequence,PBM E-score of 8-mer
1,GCCGGATA,-0.321 ± 0.0046
2,GGGTTTCA,-0.1 ± 0.084
3,GGTCCCGA,-0.26 ± 0.0084
4,CGCGCTAC,0.218 ± 0.024
5,CAGCTTTA,0.114 ± 0.029
6,AGCGCCTA,0.181 ± 0.0058
7,CGGGTGTC,0.3608 ± 0.0021
8,ACTAGCCA,-0.149 ± 0.072
9,AAGACTCC,-0.311 ± 0.011
10,TAAGCCCA,-0.145 ± 0.035
11,AACGTCCC,0.104 ± 0.0077
12,CGATCGCC,0.128 ± 0.1
13,CCAGCTAC,-0.0977 ± 0.027
14,GAAGTACA,-0.0366 ± 0.11
15,AAAGGAGC,-0.0232 ± 0.041
16,CACGCTAC,0.179 ± 0.092
17,GGGTCGGA,-0.0487 ± 0.015
18,ACTGGTGG,0.0642 ± 0.05
19,GAACCTCA,-0.0264 ± 0.06
20,GTGGACAA,0.00611 ± 0.011
21,CGAGTGTC,0.305 ± 0.011
22,AAGGGTCC,-0.221 ± 0.023
